Consider two molecules from PMC11876325.

By UniProt entry, the sequences of proteins in these tests, tags left out.
UniProt P25454: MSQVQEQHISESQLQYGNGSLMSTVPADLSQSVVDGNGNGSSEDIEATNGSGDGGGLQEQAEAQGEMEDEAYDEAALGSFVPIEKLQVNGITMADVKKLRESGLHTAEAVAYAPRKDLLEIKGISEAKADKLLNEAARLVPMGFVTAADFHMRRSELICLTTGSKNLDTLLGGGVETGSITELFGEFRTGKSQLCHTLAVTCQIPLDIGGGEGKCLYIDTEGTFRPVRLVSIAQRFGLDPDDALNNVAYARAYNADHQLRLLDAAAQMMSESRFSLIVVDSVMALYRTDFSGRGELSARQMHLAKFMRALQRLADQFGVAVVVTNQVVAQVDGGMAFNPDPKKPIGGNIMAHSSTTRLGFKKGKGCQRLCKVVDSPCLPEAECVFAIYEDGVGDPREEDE

These are yes or no findings as the source states them, for the method shown. Some entries that bind do so weakly or less than the wild type.

What all share (assay): two-hybrid; GAL4 DNA-binding domain (pGBD) and GAL4 activation domain (pGAD) fusions co-transformed into PJ69-4α (also its rad51∆, rad55∆, csm2∆, shu1∆ and shu2∆ derivatives); growth on SC-L-W-H, 2-3 days, 30 °C
In experiment [1] the target is T1, Psy3-S18A (pGBD psy3-S18A) (S. cerevisiae) (UniProt Q12318).
T1 sequence: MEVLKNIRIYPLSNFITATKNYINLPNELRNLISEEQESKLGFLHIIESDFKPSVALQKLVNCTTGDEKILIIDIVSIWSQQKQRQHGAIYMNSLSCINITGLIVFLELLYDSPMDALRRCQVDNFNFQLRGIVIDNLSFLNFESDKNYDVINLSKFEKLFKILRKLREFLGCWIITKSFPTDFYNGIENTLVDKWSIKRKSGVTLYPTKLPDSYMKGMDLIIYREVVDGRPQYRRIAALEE

The target of experiment [2] is T2, Psy3-L12A (pGBD psy3-L12A) (S. cerevisiae) (UniProt Q12318).
T2 sequence: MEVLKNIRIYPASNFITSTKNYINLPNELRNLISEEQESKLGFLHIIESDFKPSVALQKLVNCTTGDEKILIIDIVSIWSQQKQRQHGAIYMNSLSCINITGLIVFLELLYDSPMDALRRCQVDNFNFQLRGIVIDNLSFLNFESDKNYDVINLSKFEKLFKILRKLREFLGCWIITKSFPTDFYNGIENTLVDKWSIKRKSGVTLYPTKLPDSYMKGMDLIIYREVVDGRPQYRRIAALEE

Experiment [3] concerns the target T3, Psy3-T17A (pGBD psy3-T17A) (S. cerevisiae) (UniProt Q12318).
T3 sequence: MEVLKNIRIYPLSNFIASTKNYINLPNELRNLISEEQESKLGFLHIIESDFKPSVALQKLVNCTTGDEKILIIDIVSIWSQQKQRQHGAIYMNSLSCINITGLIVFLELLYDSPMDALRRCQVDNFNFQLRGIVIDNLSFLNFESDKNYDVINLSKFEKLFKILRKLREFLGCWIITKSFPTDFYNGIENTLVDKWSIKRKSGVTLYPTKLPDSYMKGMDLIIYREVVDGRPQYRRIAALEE

The target in experiment [4] is T4, Psy3-KRK (pGBD psy3-K199A, R200A, K201A) (S. cerevisiae) (UniProt Q12318).
T4 sequence: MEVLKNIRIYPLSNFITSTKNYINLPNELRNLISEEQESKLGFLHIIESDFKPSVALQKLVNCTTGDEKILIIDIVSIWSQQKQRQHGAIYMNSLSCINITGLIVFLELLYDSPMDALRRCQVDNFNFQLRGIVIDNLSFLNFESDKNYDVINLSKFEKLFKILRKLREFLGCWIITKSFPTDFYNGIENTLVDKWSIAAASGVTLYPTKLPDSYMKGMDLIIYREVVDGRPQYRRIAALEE

Experiment [5] has as its target Rad51 (two-hybrid fusion) (S. cerevisiae) (UniProt P25454).

B1: Mcm4 (pGAD Mcm4) (protein, UniProt P30665 1-933)
chain: MSQQSSSPTKEDNNSSSPVVPNPDSVPPQLSSPALFYSSSSSQGDIYGRNNSQNLSQGEGNIRAAIGSSPLNFPSSSQRQNSDVFQSQGRQGRIRSSASASGRSRYHSDLRSDRALPTSSSSLGRNGQNRVHMRRNDIHTSDLSSPRRIVDFDTRSGVNTLDTSSSSAPPSEASEPLRIIWGTNVSIQECTTNFRNFLMSFKYKFRKILDEREEFINNTTDEELYYIKQLNEMRELGTSNLNLDARNLLAYKQTEDLYHQLLNYPQEVISIMDQTIKDCMVSLIVDNNLDYDLDEIETKFYKVRPYNVGSCKGMRELNPNDIDKLINLKGLVLRSTPVIPDMKVAFFKCNVCDHTMAVEIDRGVIQEPARCERIDCNEPNSMSLIHNRCSFADKQVIKLQETPDFVPDGQTPHSISLCVYDELVDSCRAGDRIEVTGTFRSIPIRANSRQRVLKSLYKTYVDVVHVKKVSDKRLDVDTSTIEQELMQNKVDHNEVEEVRQITDQDLAKIREVAAREDLYSLLARSIAPSIYELEDVKKGILLQLFGGTNKTFTKGGRYRGDINILLCGDPSTSKSQILQYVHKITPRGVYTSGKGSSAVGLTAYITRDVDTKQLVLESGALVLSDGGVCCIDEFDKMSDSTRSVLHEVMEQQTISIAKAGIITTLNARSSILASANPIGSRYNPNLPVTENIDLPPPLLSRFDLVYLVLDKVDEKNDRELAKHLTNLYLEDKPEHISQDDVLPVEFLTMYISYAKEHIHPIITEAAKTELVRAYVGMRKMGDDSRSDEKRITATTRQLESMIRLAEAHAKMKLKNVVELEDVQEAVRLIRSAIKDYATDPKTGKIDMNLVQTGKSVIQRKLQEDLSREIMNVLKDQASDSMSFNELIKQINEHSQDRVESSDIQEALSRLQQEDKVIVLGEGVRRSVRLNNRV
Consider B1, for which the binding result in experiment [1] is “no binding”; in experiment [2], “no binding”; in experiment [3], “no binding”; in experiment [4], “binds”.

B2: Orc6 (pGAD ORC6) (protein, UniProt P38826 1-435)
chain: MSMQQVQHCVAEVLRLDPQEKPDWSSGYLKKLTNATSILYNTSLNKVMLKQDEEVARCHICAYIASQKMNEKHMPDLCYYIDSIPLEPKKAKHLMNLFRQSLSNSSPMKQFAWTPSPKKNKRSPVKNGGRFTSSDPKELRNQLFGTPTKVRKSQNNDSFVIPELPPMQTNESPSITRRKLAFEEDEDEDEEEPGNDGLSLKSHSNKSITGTRNVDSDEYENHESDPTSEEEPLGVQESRSGRTKQNKAVGKPQSELKTAKALRKRGRIPNSLLVKKYCKMTTEEIIRLCNDFELPREVAYKIVDEYNINASRLVCPWQLVCGLVLNCTFIVFNERRRKDPRIDHFIVSKMCSLMLTSKVDDVIECVKLVKELIIGEKWFRDLQIRYDDFDGIRYDEIIFRKLGSMLQTTNILVTDDQYNIWKKRIEMDLALTEPL
Take B2: the binding entry in experiment [5] is given as “no binding”; in experiment [1] it was “no binding”; in experiment [2] it was “no binding”; in experiment [3] it was “no binding”; in experiment [4], “binds”.
